The campaign covered roughly 310,000 compounds. About 14,000 (4.5%) showed an effect of 50% or more. The effect is printed as a negative number. Some of the results follow.
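Further: peak tail current of the secondary pulse compared with the same well before compound.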

In this experiment the target is human ether-à-go-go-related gene (hERG) potassium channel (human, UniProt Q12809). Put plainly: primary screen, population patch clamp on CHO cells stably expressing hERG.
Sequence of human ether-à-go-go-related gene (hERG) potassium channel (Q12809 whole entry, looked up): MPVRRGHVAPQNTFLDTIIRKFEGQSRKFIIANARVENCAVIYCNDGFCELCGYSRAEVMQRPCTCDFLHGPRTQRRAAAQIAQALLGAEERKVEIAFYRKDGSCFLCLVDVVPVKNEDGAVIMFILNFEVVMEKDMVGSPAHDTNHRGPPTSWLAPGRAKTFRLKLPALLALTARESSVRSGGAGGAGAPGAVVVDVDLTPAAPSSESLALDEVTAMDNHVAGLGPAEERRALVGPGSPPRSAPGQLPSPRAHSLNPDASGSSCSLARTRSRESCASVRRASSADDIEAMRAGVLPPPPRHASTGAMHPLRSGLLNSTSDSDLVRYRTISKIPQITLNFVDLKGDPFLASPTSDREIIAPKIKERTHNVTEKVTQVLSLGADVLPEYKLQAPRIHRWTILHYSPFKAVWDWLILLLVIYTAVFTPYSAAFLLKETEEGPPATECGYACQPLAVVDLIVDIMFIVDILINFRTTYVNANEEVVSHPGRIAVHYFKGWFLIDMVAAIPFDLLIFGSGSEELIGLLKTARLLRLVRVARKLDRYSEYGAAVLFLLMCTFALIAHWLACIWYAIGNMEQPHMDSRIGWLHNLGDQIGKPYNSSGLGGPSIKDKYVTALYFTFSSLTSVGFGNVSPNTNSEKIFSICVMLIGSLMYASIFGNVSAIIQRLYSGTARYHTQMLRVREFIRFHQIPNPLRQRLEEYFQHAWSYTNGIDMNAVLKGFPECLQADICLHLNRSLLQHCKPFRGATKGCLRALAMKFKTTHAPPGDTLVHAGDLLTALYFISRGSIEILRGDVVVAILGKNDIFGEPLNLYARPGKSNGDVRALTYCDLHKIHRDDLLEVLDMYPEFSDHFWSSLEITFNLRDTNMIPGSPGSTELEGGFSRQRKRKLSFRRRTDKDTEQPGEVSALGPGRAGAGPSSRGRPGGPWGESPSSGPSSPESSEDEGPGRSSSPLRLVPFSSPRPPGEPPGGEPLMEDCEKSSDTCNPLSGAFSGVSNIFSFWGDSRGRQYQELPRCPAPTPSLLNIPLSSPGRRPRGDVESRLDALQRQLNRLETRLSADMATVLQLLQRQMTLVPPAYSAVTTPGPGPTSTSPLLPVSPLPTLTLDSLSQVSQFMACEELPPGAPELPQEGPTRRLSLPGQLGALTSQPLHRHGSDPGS
As for `CN(CC(=O)Nc1ccc(F)c(F)c1F)C(=O)C1CCCO1` (stereo not drawn), the “hERG current change (%, negative = inhibition) at 10uM” value amounted to 10%.
Turning to `COC(=O)c1sccc1NC(=O)c1cccc(OC)c1`, the “hERG current change (%, negative = inhibition) at 10uM” value came to 18.3%.
With `Cc1ccc(NC(=O)NNc2cccc(Cl)n2)cc1` the figure was -12.4%; with `Cn1nnnc1SCc1ccc(C(=O)Nc2nccs2)cc1`, -6.13%; with `Cc1cccc(C)c1NC(=O)CSC(=O)c1sc2ccccc2c1Cl`, 10.7%.
For `CN1CCN(c2ccc(NC(=O)COc3ccccc3[N+](=O)[O-])cc2)CC1`, the “hERG current change (%, negative = inhibition) at 10uM” value was -10.5%.
With `CCOc1ccccc1-n1c(COc2ccccc2)nnc1SCC(N)=O` the figure was -0.434%; with `CCN(CC)S(=O)(=O)c1ccc(C(=O)NCCc2cc3c(OC)ccc(OC)c3[nH]c2=O)cc1`, -48.6%.
As to `CCOC(=O)C1=C(c2ccc(O)cc2)NC(=O)NC1C` (stereo not drawn), the “hERG current change (%, negative = inhibition) at 10uM” value is given as 9.47%.
With `Cc1ccc(S(=O)(=O)N(Cc2ccc(Cl)cc2)c2ccccc2C(=O)O)cc1` the figure was 12.3%; with `Cn1cccc1CC(=O)N/N=C/C(Cl)=C/c1ccccc1`, -6.25%; with `Nc1c(Cl)ncnc1N/N=C/c1ccnc2ccccc12`, 1.91%.
With `CN(C)c1ccc(N=Cc2nc(-c3ccccc3)oc2O)cc1` the figure was -3.97%.
For `O=C(Nc1ccccc1NC(=O)c1ccc(F)cc1)c1ccc(F)cc1`, the “hERG current change (%, negative = inhibition) at 10uM” value was determined as 22.9%.
With `CSCCC(NC(=O)c1ccccc1Br)C(=O)N1CCCCCCC1` (stereo not drawn) the figure was -6.56%; with `CC1CCN(S(=O)(=O)c2ccc(C(=O)OC(C)C(=O)N(C)C3CCCCC3)cc2)CC1` (stereo not drawn), 4.78%; with `COc1ccc(SCCN2CC[C@@H](O)CCC2=O)cc1`, 13.8%.
On to `CCC(C)NS(=O)(=O)c1ccc(OCC(=O)NCc2ccco2)cc1` (stereo not drawn), for which the “hERG current change (%, negative = inhibition) at 10uM” value is listed as -3.2%.
With `COc1cccc(Cn2cnc3c([N+](=O)[O-])c(C)c(C)cc32)c1` the figure was -14.5%.
With `COc1cc(NS(=O)(=O)c2ccc(NC(=S)Nc3ccccc3)cc2)nc(OC)n1` the figure was 2.01%.
With `C=CCNC(=O)CC(=O)N/N=C/c1ccc(C(=O)OC)cc1` the figure was 9.83%.
On to `COc1ccc(C2C3=C(NCCN=C3c3ccccc3)C(=O)N2c2ccccc2)c(OC)c1` (stereo not drawn), for which the “hERG current change (%, negative = inhibition) at 10uM” value is given as -2.87%.
Consider `Cc1cccc(C)c1NC(=O)N1CCCC1C(=O)Nc1ccc(-n2cnnn2)cc1` (stereo not drawn), for which the “hERG current change (%, negative = inhibition) at 10uM” value is listed as -35.8%.
As for `COc1ccc(-c2ccc(CCC(=O)O)n2NC(N)=O)cc1`, the “hERG current change (%, negative = inhibition) at 10uM” value was 7.52%.
With `Cc1ccc(-c2cn(S(=O)(=O)c3cccc4nsnc34)nc2N)cc1` the figure was -0.598%; with `COCCn1c(C)cc(C(=O)CSc2nnc(C)s2)c1C`, 1.57%; with `O=C1C2C(C(=O)N1Cc1cccnc1)C1C=CC2C12CC2` (stereo not drawn), -1.16%.
`Cc1ccnc(N2CCN(C(=O)CSc3nc4ccccc4nc3N3CCCCC3)CC2)c1`: the “hERG current change (%, negative = inhibition) at 10uM” value was -12.2%.
With `COc1ccc(CC(=O)Oc2ccc(C)cc2Br)cc1OC` the figure was 3.25%; with `N#Cc1nnn(Cc2ccccc2)c1N`, 21.8%.
As for `CCC1CCC(C(=O)NC(C(=O)NCCCN2CCCCC2C)C(C)C)CC1` (stereo not drawn), the “hERG current change (%, negative = inhibition) at 10uM” value is on record as -15.3%.
With `COc1ccc(/C=N/S(=O)(=O)c2ccccc2)cc1OC` the figure was 16.1%; with `O=C(NCc1ccc(Cl)cc1Cl)C(=O)N1CCCCC1`, 7.36%; with `COc1ccc(C2=NS(=O)(=O)N(C)C(C(=O)Nc3ccc(OC)c(OC)c3)=C2)cc1`, -11.9%.
With `CCCOc1ccc(-c2nc(C#N)c(NCCCn3ccnc3)o2)cc1` the figure was 2.34%; with `COc1cc(C(=O)NCCc2ccc3c(c2)OCCO3)ccc1OCC(=O)N1CCOCC1`, -8.84%.
With `Nc1nc(NC(=O)/C=C\C(=O)O)nn1-c1ccccc1` the figure was 27.8%.
As for `O=C(O)c1cccc(S(=O)(=O)Nc2ccc3[nH]c(=O)[nH]c3c2)c1`, the “hERG current change (%, negative = inhibition) at 10uM” value stood at 6.79%.
With `CCNC(=O)c1cc(S(=O)(=O)N2CCSCC2)ccc1OC`, the “hERG current change (%, negative = inhibition) at 10uM” value was 14.8%.
For `COc1ccc(-c2csc(N(CCCN3CCOCC3)C(=O)CCl)n2)cc1.Cl`, the “hERG current change (%, negative = inhibition) at 10uM” value stood at 3.28%.
With `C[N+](C)(C)CCN1C(=O)CSC1=O.[I-]` the figure was 10.3%.
With `O=C(NCc1cccnc1)Nc1ccccc1C(F)(F)F`, the “hERG current change (%, negative = inhibition) at 10uM” value is listed as -1.92%.
With `COc1ccc(/C=C/C(=O)NC(CCSC)C(=O)O)cc1` (stereo not drawn) the figure was -6.55%; with `COc1ccc(O)c(/C=N/NC(=S)Nc2cccc(S(=O)(=O)N(C)C)c2)c1`, -10.5%.
For the compound `Cc1c(C=O)cnn1CCC(=O)O`, the “hERG current change (%, negative = inhibition) at 10uM” value was 4.76%.
